Measurements published in PubChem BioAssay AID360 (National Center for Advancing Translational Sciences (NCATS), 2006).
Screen size: about 48,000 compounds; about 550 (1.1%) were called active. About 4% were inconclusive and are not listed. Cut-off read from the data, not from the text of the source: active = potency below about 15 µM; inconclusive = mostly about 16 µM to 33 µM; inactive = weaker than that. Some of the results follow.

Each molecule was assayed against Lysosomal acid glucosylceramidase (Homo sapiens) (UniProt P04062) (assay: Glucocerebrosidase). Conditions: purified enzyme, resorufin glucoside fluorescence (screen aimed at inhibitors), 20 min.
Sequence of UniProt P04062 (P04062 whole entry, looked up): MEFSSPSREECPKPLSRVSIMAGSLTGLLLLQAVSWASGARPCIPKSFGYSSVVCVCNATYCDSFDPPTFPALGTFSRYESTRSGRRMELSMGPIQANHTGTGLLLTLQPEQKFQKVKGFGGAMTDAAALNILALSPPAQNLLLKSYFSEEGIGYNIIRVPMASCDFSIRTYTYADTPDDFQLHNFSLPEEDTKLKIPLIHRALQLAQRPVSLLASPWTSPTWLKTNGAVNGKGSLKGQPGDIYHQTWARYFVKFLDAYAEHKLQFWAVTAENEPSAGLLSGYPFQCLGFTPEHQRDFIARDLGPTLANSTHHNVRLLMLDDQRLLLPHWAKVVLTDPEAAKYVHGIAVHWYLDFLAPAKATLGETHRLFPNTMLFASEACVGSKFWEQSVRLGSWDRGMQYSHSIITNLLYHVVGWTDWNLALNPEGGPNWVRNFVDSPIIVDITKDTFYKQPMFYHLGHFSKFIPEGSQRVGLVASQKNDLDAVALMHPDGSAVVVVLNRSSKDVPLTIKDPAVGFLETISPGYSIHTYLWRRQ
How it was run: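 Compounds titrated against 0.2 nM normal enzyme, 30 uM resorufin beta-D-glucopyranoside substrate, citrate/phosphate buffer with taurocholate and tween-20, pH 5.9. Reaction ran 20 min at room temperature; fluorescence (Ex 548/Em 600) gave AC50.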
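Note: the screen sought inhibitors.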
Potency is the fitted concentration of half-maximal effect.

Potency, inactive:
COCCCn1c(SCC(=O)NC(C)(C)C)nnc1-c1ccccc1 > 76.9 µM
Cc1ccc(OCc2nnc(SCC(=O)NC3CCCCC3)n2C)cc1 > 76.9 µM
Cc1cc(OC(=O)N2CCOCC2)cc(C)c1Cl > 76.9 µM
Fc1ccc2nc(-c3ccccc3)nc(SCc3nnc(-c4ccccc4)o3)c2c1 > 76.9 µM
N#CCCNC(=O)CCN1CCOCC1 > 76.9 µM
Oc1c(CN2CCOCC2)cc(-c2ccccc2)cc1CN1CCOCC1 > 76.9 µM
COc1ccc(OC)c(NC(=O)c2cc3n(n2)C(C(F)(F)F)CC(c2ccc4c(c2)OCO4)N3)c1 (centres undefined) > 76.9 µM
Cc1ccc(S(=O)(=O)N2CCN(C(=O)COc3ccc(-c4nnco4)cc3)CC2)cc1 > 76.9 µM
Cc1nnc(N(Cc2ccco2)C(=O)c2cccc(C#N)c2)s1 > 76.9 µM
c1ccc(Cn2ccnc2SCc2nnc(-c3ccccc3)o2)cc1 > 76.9 µM
O=S(=O)(NC1CCCC1)c1cccc(S(=O)(=O)N2CCC(n3nnc4ccccc43)CC2)c1
Cc1ccc2nsnc2c1S(=O)(=O)N(Cc1cc2cccc(C)c2[nH]c1=O)CC1CCCO1 (centres undefined) > 76.9 µM
CCN(CC)CCNC(=O)CS(=O)Cc1nc(-c2ccc(C)cc2)oc1C (centres undefined) > 76.9 µM
CC(C)NC(=O)CSc1nncn1-c1ccccc1 > 76.9 µM
CCOC(=O)N1CCN(Cc2oc(CO)cc(=O)c2O)CC1 > 76.9 µM
CCOc1ccc(C2C=C(c3ccc(F)cc3)Nc3ncnn32)cc1 (centres undefined) > 76.9 µM
Cc1ccc(NC(=O)N(C2=NCC(C)S2)c2ccccc2)cc1 (centres undefined) > 76.9 µM
COc1ccccc1Cn1nnc2c(=O)[nH]c(C3CCN(C(=O)c4ccc(C)cc4)CC3)nc21 > 76.9 µM
CCOC(=O)Cn1c(=N)n(Cc2ccccc2F)c2ccccc21 > 76.9 µM
Cc1ccc(-c2cc(C(=O)Nc3cc(C)ccc3C)[nH]n2)c(O)c1 > 76.9 µM
CCOC(=O)c1ccc(NC(=O)CSc2nnc(Cc3cccs3)n2C)cc1 > 76.9 µM
N#Cc1nc(COc2ccc(F)cc2)oc1N1CCCC1 > 76.9 µM
Cc1ccc(-c2cn3cccnc3n2)cc1NC(=O)c1c(-c2ccccc2Cl)noc1C
CC1(C)CC(=O)c2sc(NS(=O)(=O)Cc3ccccc3)nc2C1 > 76.9 µM
N#Cc1nc(-c2cccs2)oc1N1CCN(Cc2ccccc2)CC1 > 76.9 µM
CCCCCOC(=O)C1=C(C)N(C)C(=O)NC1c1cc(Br)c(O)c(OC)c1 (centres undefined) > 76.9 µM
N#CCCN1CCN(C(=S)c2ccc(-c3ccc(Cl)c(Cl)c3)o2)CC1 > 76.9 µM
NC1=NCc2ccccc21 > 76.9 µM
CC(=O)Nc1ccc(OCC(O)CN2CCN(c3cccc(Cl)c3)CC2)cc1 (centres undefined) > 76.9 µM
O=C(COc1ccccc1)N1CCc2ccccc2C1 > 76.9 µM
COc1ccccc1N1CCN(Cc2ccco2)CC1 > 76.9 µM
CC1CCCN(S(=O)(=O)c2ccc(S(=O)(=O)N3CCCN(Cc4ccccc4)C3)cc2)C1 (centres undefined) > 76.9 µM
CCn1c(=O)cc(OCC(=O)NCCCN2CCN(c3cccc(Cl)c3)CC2)c2ccccc21 > 76.9 µM
Cc1cc(C)cc(N(CC(=O)NCc2cccnc2)S(C)(=O)=O)c1 > 76.9 µM
CN(C)c1oc(-c2ccc(OCc3ccc(Cl)cc3)cc2)nc1C#N > 76.9 µM
N#Cc1c(-c2ccco2)nc(NCC2CCCO2)[nH]c1=O (centres undefined) > 76.9 µM
CC(C)Sc1nnc(Nc2ccccc2)s1 > 76.9 µM
O=C(COC(=O)CCN1C(=O)c2ccccc2C1=O)Nc1ccc(S(=O)(=O)N2CCCC2)cc1 > 76.9 µM
CCOc1ccc(C(=O)OCn2nnc3ccccc3c2=O)cc1OC > 76.9 µM
CC1CCC(C(=O)NC(C(=O)NCCCN2CCOCC2)C(C)C)CC1 (centres undefined) > 76.9 µM
CN1CCN(C(c2cccc(C(F)(F)F)c2)c2nnnn2Cc2ccccc2)CC1 (centres undefined)
O=C(NCc1cccnc1)c1ccc2c(=O)n(CCCN3CCCC3=O)c(=S)[nH]c2c1 > 76.9 µM
COCC(=O)Nc1ccc(-c2cn3cccnc3n2)cc1 > 76.9 µM
O=C(NCCN1CCOCC1)c1nn2c(c1Cl)NC(c1ccccc1)CC2C(F)(F)F (centres undefined)
O=C1CC(C(=O)Nc2ccc(C(=O)N3CCOCC3)cc2)C2(CCCCC2)O1 (centres undefined) > 76.9 µM
COc1ccc(C(=O)N2CC=C(c3ccccc3)CC2)cc1S(=O)(=O)N1CCOCC1 > 76.9 µM
COC(=O)c1[nH]c2ccc(C)cc2c1NC(=O)CN1CCN(c2ccc(F)cc2)CC1 > 76.9 µM
COc1ccccc1-c1noc(CCC(=O)Nc2cccc(C(F)(F)F)c2)n1 > 76.9 µM
Cn1c(=O)c2c(nc(CN3CCc4ccccc4C3)n2CC(=O)c2ccccc2)n(C)c1=O > 76.9 µM
COc1ccc(CC(=O)Nc2ccc(-c3noc(-c4cc(OC)c(OC)c(OC)c4)n3)cc2)cc1 > 76.9 µM
Cc1ccc(-c2nc(CSCC(=O)NCc3cccnc3)c(C)o2)cc1 > 76.9 µM
NC(=O)CCCCC(=O)OCCCc1cccs1 > 76.9 µM
Cc1nnc(Nc2ccc(C(=O)N3CCOCC3)cc2)c2ccccc12 > 76.9 µM
Cc1occc1C(=O)NC(C)C(C)(C)C (centres undefined) > 76.9 µM
CCC(Sc1nc(C)cc(=O)[nH]1)C(=O)Nc1nnc(C)s1 (centres undefined) > 76.9 µM
CCn1c(=O)c(C(=O)CN2CCCc3ccccc32)c(N)n(Cc2ccccc2)c1=O > 76.9 µM
Cc1c(Cl)cccc1NC(=O)CCN1CCCC(C)C1 (centres undefined) > 76.9 µM
COc1ccc(Cl)cc1NC(=O)CN1CCC(n2nnc3cc(F)ccc32)CC1 > 76.9 µM
Cc1cc(N2CCN(c3nc(N4CCOCC4)nc4ccccc34)CC2)c2ccccc2n1 > 76.9 µM
Cc1cc2ccccc2c(=O)n1CC(=O)N1CCN(c2cccc(Cl)c2)CC1 > 76.9 µM
O=C(Nc1ccon1)c1ccc(S(=O)(=O)N2CCCCCC2)cc1 > 76.9 µM
COc1ccc(N2CC(C(=O)Nc3ccccc3C(=O)NCc3ccco3)CC2=O)cc1 (centres undefined) > 76.9 µM
O=C(NCC1CCCO1)c1cccc(N2C(=O)C3C4C=CC(C4)C3C2=O)c1 (centres undefined) > 76.9 µM
O=C(CSc1ncnc2c1oc1ccccc12)N1CCN(c2ccccc2)CC1 > 76.9 µM
Cc1ccc(C2NC(=O)NC(O)(C(F)(F)F)C2C(=O)c2cccs2)o1 (centres undefined) > 76.9 µM
Nc1cc(-c2nn[nH]n2)ccc1F > 76.9 µM
COc1cccc(-c2nnc(SCC(=O)Nc3cc(C)ccc3OC)n2N)c1 > 76.9 µM
COc1ccc(CCNC(=O)c2noc3c2CCCC3)cc1OC > 76.9 µM
Cc1cccc(CSc2nnc(-c3ccccn3)n2N)c1 > 76.9 µM
O=C(COc1ccccc1Cl)N1CCCC1 > 76.9 µM
O=C(NCCN1CCN(c2ccccc2)CC1)c1cccn2c(=O)c3ccccc3nc12 > 76.9 µM
Cc1cc(C)c2nc(C(F)(F)F)nc(NCCCN3CCCC3=O)c2c1 > 76.9 µM
O=C1C=C(c2ccccc2)C(O)(c2ccccc2)C1 (centres undefined) > 76.9 µM
COc1ccc(Nc2nc(C)c3ccccc3n2)cc1 > 76.9 µM
O=C(CCCOc1ccccc1)N1CCN(c2ccccn2)CC1 > 76.9 µM
COc1ccc(N(C(=O)COc2ccccc2)C2C=CS(=O)(=O)C2)cc1 (centres undefined) > 76.9 µM
Cc1c(N=Cc2nc3ccccc3[nH]2)c(=O)n(-c2ccccc2)n1C > 76.9 µM
CCOC(=O)C1CCN(Cc2nc(-c3ccc(OC)c(OC)c3)no2)CC1 > 76.9 µM
CN(C)c1nc(OCCNC(=O)COc2ccc(Cl)cc2Cl)nc(N2CCOCC2)n1 > 76.9 µM
Cc1cc(=O)n2nc(N3CCCC(C(=O)N4CCOCC4)C3)sc2n1 (centres undefined) > 76.9 µM
CCN(CC)C(=O)CN1C(=O)C2(OCC(C)(c3ccccc3)CO2)c2ccccc21 (centres undefined) > 76.9 µM
Cc1cccc(N2CCN(C(=O)c3ccc(N4CCCC4=O)cc3)CC2C)c1 (centres undefined) > 76.9 µM
CCOC(=O)c1c(C)[nH]c(C(=O)COC(=O)c2ccc(N3CCCC3=O)cc2)c1C > 76.9 µM
Cc1ccc(Cl)cc1N1CCN(C(=O)CN2C(=O)c3cccc4cccc2c34)CC1 > 76.9 µM
O=C(NCc1ccccc1)C1CCN(S(=O)(=O)N2CCCCCC2)CC1 > 76.9 µM
CCCn1c(SCC(=O)Nc2cccc(C)n2)nnc1-c1ccco1 > 76.9 µM
Cc1nnc(SCC(=O)NCCc2ccccc2)[nH]c1=O > 76.9 µM
Cc1oc(-c2ccc(Cl)cc2)nc1CN1CCCC(C(=O)NCc2cccnc2)C1 (centres undefined) > 76.9 µM
COc1cc(NC(=O)c2cc(-c3ccco3)on2)c(OC)cc1Cl > 76.9 µM
